According to a collection of fitness landscapes (doi:10.1038/s41467-024-54723-y):
Whole data set: some 18,000 sequences, median “TetR repression strength (sort-seq, GFP reporter)” near 0.23, cut for the highest 2% near 0.68. The list shows a part of the results.

target: TetR (class B, Tn10) (UniProt P04483); assay: TetR repression strength (sort-seq, GFP reporter) (relative to tetO2 = 1); higher = stronger repression; conditions: E. coli
Method in brief: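 E. coli SIG10-MAX carried a low-copy plasmid library with eight randomized operator positions between a constitutive promoter and sfGFP, with TetR constitutively expressed. Cells grew 5 h at 37 °C in LB with 50 µg/mL chloramphenicol, then 10^6 cells were FACS-sorted into 13 fluorescence bins, each Illumina-sequenced. Repression strength is the top bin index plus one minus the read-weighted mean bin, divided by the wild-type operator value. Three independent transformations; variants with ≥30 reads in all replicates and CV ≤0.5 were averaged.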

UniProt P04483, sequence (P04483 whole entry): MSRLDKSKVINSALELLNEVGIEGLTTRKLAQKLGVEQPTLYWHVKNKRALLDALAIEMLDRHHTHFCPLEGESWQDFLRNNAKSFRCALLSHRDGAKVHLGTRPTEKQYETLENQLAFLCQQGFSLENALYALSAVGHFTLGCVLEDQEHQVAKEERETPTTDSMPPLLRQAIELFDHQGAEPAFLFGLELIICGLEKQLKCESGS

Sequence	TetR repression strength
TCCCAAAAAGTTCGGGAGA	0.566
TCCCGCTGAGTTGACGAGA	0.0238
TCCCGATAAGTGGGAGAGA	0.389
TCCCGTCAAGTCGTGGAGA	0.227
TCCCGACAAGTTGGCGAGA	0.19
TCCCTTAAAGTGTGTGAGA	0.344
TCCCGTTCAGTATGGGAGA	0.106
TCCCTAAAAGTACTTGAGA	0.104
TCCCGCCGAGTCGGCGAGA	0.189
TCCCCTTAAGTATGGGAGA	0.148
TCCCCAAGAGTTGGTGAGA	0.116
TCCCTTAAAGTGGCGGAGA	0.172
TCCCCATGAGTCGTCGAGA	0.214
TCCCTAGGAGTGATGGAGA	0.131
TCCCTTTTAGTTCAGGAGA	0.417
TCCCAATGAGTATTAGAGA	0.265
TCCCCGTCAGTGATTGAGA	0.3
TCCCAATTAGTGACTGAGA	0.316
TCCCTGTTAGTTTCTGAGA	0.275
TCCCATCAAGTTCGTGAGA	0.148
TCCCGCGCAGTTGCGGAGA	0.17
TCCCAGGCAGTACAGGAGA	0.0568
TCCCTGCCAGTGGCGGAGA	0.304
TCCCTTACAGTGAGGGAGA	0.177
TCCCAGGGAGTTCTCGAGA	0.205
TCCCTAGTAGTCTGGGAGA	0.31

Sequence	TetR repression strength
TCCCGTACAGTAAGGGAGA	0.18
TCCCACACAGTAGTTGAGA	0.108
TCCCAGGTAGTGTGGGAGA	0.345
TCCCGAAGAGTAATGGAGA	0.153
TCCCTTCTAGTGTAGGAGA	0.235
TCCCACAAAGTGGAGGAGA	0.12
TCCCATCAAGTGACCGAGA	0.298
TCCCAAGAAGTGGGCGAGA	0.176
TCCCAGTTAGTATTGGAGA	0.207
TCCCCGAGAGTTGTGGAGA	0.19
TCCCGGAAAGTCACAGAGA	0.108
TCCCGGGAAGTGGCAGAGA	0.266
TCCCTTTGAGTAAGTGAGA	1.15
TCCCGCCTAGTGGTTGAGA	0.217
TCCCGAGAAGTGTACGAGA	0.207
TCCCACCGAGTGGAGGAGA	0.172
TCCCGTGAAGTATGAGAGA	0.294
TCCCTGTGAGTAAAGGAGA	0.232
TCCCAACGAGTCTTTGAGA	0.167
TCCCAGTGAGTGTTGGAGA	0.21
TCCCCTCTAGTACACGAGA	0.398
TCCCCAAAAGTCTTGGAGA	0.681
TCCCTGGCAGTGGATGAGA	0.233
TCCCACGAAGTACCGGAGA	0.0264
TCCCGTTCAGTGCTCGAGA	0.442
TCCCGGATAGTGATGGAGA	0.208

Sequence	TetR repression strength
TCCCGGGCAGTGTGGGAGA	0.0627
TCCCTTGTAGTCGAGGAGA	0.136
TCCCTATGAGTGAACGAGA	0.424
TCCCAGCAAGTTATGGAGA	0.701
TCCCCGTGAGTTTGTGAGA	0.175
TCCCCGTCAGTTAAGGAGA	0.217
TCCCATCCAGTATCGGAGA	0.255
TCCCATCCAGTACCGGAGA	0.23
TCCCGCTCAGTGGGAGAGA	0.184
TCCCAGTGAGTGCGTGAGA	0.175
TCCCAGTGAGTATGGGAGA	0.207
TCCCGATAAGTGCAGGAGA	0.393
TCCCGGGTAGTGACGGAGA	0.181
TCCCAGTAAGTGTTCGAGA	0.149
TCCCTTAGAGTGGGAGAGA	0.18
TCCCTGATAGTGTACGAGA	0.254
TCCCCCAGAGTAACCGAGA	0.622
TCCCGGGAAGTATATGAGA	0.207
TCCCGGGTAGTTCCTGAGA	0.168
TCCCCGGAAGTGACGGAGA	0.183
TCCCGACAAGTAACGGAGA	0.162
TCCCATCAAGTAGCAGAGA	0.207
TCCCAACGAGTAGACGAGA	0.217
TCCCTCGAAGTATTCGAGA	0.252
TCCCATGCAGTTCTGGAGA	0.375
TCCCACAAAGTCGGGGAGA	0.207

Sequence	TetR repression strength
TCCCTGATAGTGGGTGAGA	0.0505
TCCCCAGCAGTCCTCGAGA	0.504
TCCCAGGGAGTCACGGAGA	0.284
TCCCGTGGAGTAGCAGAGA	0.169
TCCCGAGCAGTGGACGAGA	0.213
TCCCGCGGAGTCACTGAGA	0.415
TCCCTACAAGTCATCGAGA	0.309
TCCCTAGCAGTGGTTGAGA	0.265
TCCCACATAGTTGTTGAGA	0.297
TCCCCTAGAGTACAGGAGA	0.185
TCCCGTGCAGTTGTGGAGA	0.231
TCCCGTGCAGTTGAGGAGA	0.33
TCCCCGCAAGTATGGGAGA	0.152
TCCCGGGTAGTTATAGAGA	0.121
TCCCTGTAAGTGCCTGAGA	0.24
TCCCTGTGAGTGGAAGAGA	0.181
TCCCCCGGAGTAGGGGAGA	0.0972
TCCCCAATAGTTGAGGAGA	0.343
TCCCCTTCAGTCGGGGAGA	0.202
TCCCAGCTAGTCTTCGAGA	0.24
TCCCAACTAGTATTTGAGA	0.204
TCCCGGTAAGTCCTGGAGA	0.204
TCCCTTTGAGTGTGTGAGA	0.16
TCCCCGGTAGTGCCTGAGA	0.252
TCCCCTGGAGTTTTGGAGA	0.0461
TCCCGCTTAGTAAATGAGA	0.415

Sequence	TetR repression strength
TCCCGTAAAGTCCGGGAGA	0.173
TCCCCACAAGTTACAGAGA	0.244
TCCCCACGAGTAGCGGAGA	0.131
TCCCCAAAAGTTGTAGAGA	0.259
TCCCACTCAGTGATAGAGA	0.701
TCCCGCACAGTGATCGAGA	0.275
TCCCTTAGAGTGATCGAGA	0.338
TCCCAGCCAGTTTAAGAGA	0.296
TCCCGGCAAGTGTGTGAGA	0.258
TCCCGTTTAGTCCGTGAGA	0.271
TCCCGCTGAGTTCCAGAGA	0.207
TCCCTTTCAGTTATCGAGA	0.602
TCCCTTTGAGTTAATGAGA	0.278
TCCCAAGGAGTACTAGAGA	0.266
TCCCGGGTAGTTGGAGAGA	0.506
TCCCCTGCAGTCATGGAGA	0.0833
TCCCGGCAAGTAACGGAGA	0.16
TCCCTCGTAGTGGCGGAGA	0.385
TCCCCGTAAGTGGGGGAGA	0.0711
TCCCGGGGAGTTGTGGAGA	0.215
TCCCCTAGAGTTAAGGAGA	0.425
TCCCATTTAGTGAGGGAGA	0.298
TCCCTATCAGTGCTAGAGA	0.841
TCCCAAGAAGTGGTGGAGA	0.143
TCCCTCGCAGTCATGGAGA	0.284
TCCCACCGAGTCTTGGAGA	0.146

Sequence	TetR repression strength
TCCCGGTGAGTGTTGGAGA	0.494
TCCCGGTGAGTGGATGAGA	0.254
TCCCGTAGAGTTCACGAGA	0.29
TCCCTTAAAGTGGCCGAGA	0.402
TCCCTCTGAGTCACCGAGA	0.263
TCCCAATTAGTTGGAGAGA	0.281
TCCCTGGAAGTTGAGGAGA	0.219
TCCCTGATAGTTGGGGAGA	0.165
TCCCCGGAAGTGTCGGAGA	0.0979
TCCCTCGTAGTCTGAGAGA	1.03
TCCCGTAGAGTGTTGGAGA	0.145
TCCCAGTGAGTCGCGGAGA	0.104
TCCCGGTGAGTTGAGGAGA	0.395
TCCCAGTGAGTTCGCGAGA	0.402
TCCCGGGGAGTCGTAGAGA	0.224
TCCCGTCTAGTTACAGAGA	0.338
TCCCCGTTAGTGCTAGAGA	0.337
TCCCCCTGAGTGCTTGAGA	0.366
TCCCATGGAGTTAAGGAGA	0.223
TCCCACGCAGTAGCTGAGA	0.127
TCCCTGGTAGTGTTCGAGA	0.0521
TCCCGAAAAGTCCCCGAGA	0.402
TCCCGACCAGTTCATGAGA	0.173
TCCCCGGGAGTTCACGAGA	0.251
TCCCCGGAAGTTTCCGAGA	0.377
TCCCAAACAGTCGACGAGA	0.468

Sequence	TetR repression strength
TCCCGGACAGTATAGGAGA	0.514
TCCCTTTCAGTGGATGAGA	0.498
TCCCTTTAAGTTAAGGAGA	0.533
TCCCCCTTAGTGTCAGAGA	0.262
TCCCCATCAGTACGGGAGA	0.0704
TCCCTTGAAGTGGGCGAGA	0.0979
TCCCTCTGAGTATCAGAGA	0.163
TCCCCGTTAGTTGGGGAGA	0.13
TCCCGGACAGTCGGGGAGA	0.278
TCCCTGTAAGTCCATGAGA	0.205
TCCCACGAAGTAGATGAGA	0.131
TCCCTAAAAGTACGGGAGA	0.217
TCCCACTAAGTATGTGAGA	0.148
TCCCTTGAAGTGGGGGAGA	0.266
TCCCGGAGAGTTAGTGAGA	0.195
TCCCTAGGAGTACAGGAGA	0.191
TCCCGAGAAGTGTATGAGA	0.304
TCCCTATTAGTTAAGGAGA	0.207
TCCCGTGGAGTGGAGGAGA	0.153
TCCCTTCTAGTTACCGAGA	0.369
TCCCGTGTAGTTCAGGAGA	0.19
TCCCTTAAAGTGCGCGAGA	0.292
TCCCTTAGAGTAGCCGAGA	0.407
TCCCGACAAGTGTACGAGA	0.211
TCCCACGGAGTACCAGAGA	0.306
TCCCAAAAAGTGTGGGAGA	0.415

Sequence	TetR repression strength
TCCCAGCTAGTACGCGAGA	0.4
TCCCTTCCAGTAGAAGAGA	0.245
TCCCCTAAAGTTAGTGAGA	0.166
TCCCTCATAGTTTTGGAGA	0.303
TCCCCTGTAGTTGTCGAGA	0.123
TCCCGTCGAGTTTAGGAGA	0.268
TCCCGGCCAGTTTAGGAGA	0.246
TCCCGCATAGTACGTGAGA	0.273
TCCCAATAAGTGGCAGAGA	0.32
TCCCAGTTAGTTGAGGAGA	0.231
TCCCCCAGAGTAGGGGAGA	0.102
TCCCGCTCAGTAAAAGAGA	0.427
TCCCTATAAGTGAAGGAGA	0.492
TCCCAGCAAGTTGCCGAGA	0.11
TCCCTTTCAGTACTAGAGA	0.354
TCCCAACAAGTGGATGAGA	0.243
TCCCATTTAGTGAGAGAGA	0.66
TCCCAAGGAGTACATGAGA	0.202
TCCCGACAAGTCAGTGAGA	0.339
TCCCCTATAGTATCAGAGA	0.138
TCCCCGAGAGTCATAGAGA	0.041
TCCCCTTCAGTCGAGGAGA	0.0622
